The list shows a part of the results. At the low end of the ranking the order means little.

The record followed here is article PMC6212790.

The target of this test is T1, GST-Rok-C97-191 (UniProt O34857).
T1 sequence: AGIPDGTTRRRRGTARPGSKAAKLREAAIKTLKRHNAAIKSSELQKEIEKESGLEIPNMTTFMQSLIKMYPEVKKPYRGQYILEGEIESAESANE
Briefly: protein binding microarray.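 Note: rank score from −0.5 (least bound) to 0.5 (best bound).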 As to conditions: Rok is a gene silencer of Bacillus subtilis; high values mean tight binding; most listed sequences are background and not binding sites; double strand, one strand shown.
Consider CACTAACC, for which the binding signal is 0.0226 E-score.

With AAAGCGGG, the binding signal is -0.0411 E-score.

In turn, GTGTTAAA registered a binding signal of -0.0569 E-score.

Regarding CTGCGCAA, the binding signal was -0.111 E-score.

Regarding AACCTAAG, the binding signal amounted to 0.0134 E-score.

Sequence TGTGCTAA returned a binding signal of 0.118 E-score.

Sequence CACTCTCC showed a binding signal of -0.104 E-score.

For GACCTGGA, the binding signal was -0.0196 E-score.

CGCGAAGA showed a binding signal of 0.102 E-score.

On to CGGCGGGC, for which the binding signal was -0.277 E-score.

In the case of ACTTGATA, the binding signal turned out to be 0.212 E-score.

For the sequence CCAGTTTA, the binding signal is -0.0153 E-score.

AATTAGGC gave a binding signal of 0.193 E-score.

Consider ACCGGGCT, for which the binding signal was -0.308 E-score.

As to CGTTTGGA, the binding signal was 0.0119 E-score.

The sequence AGATGTAT had a binding signal of 0.264 E-score.

In turn, ACTCGTGC yielded a binding signal of -0.123 E-score.

ATTGATGG showed a binding signal of -0.162 E-score.

In turn, GGGCCGTA came in with a binding signal of -0.267 E-score.

CAGATCGG yielded a binding signal of -0.0569 E-score.

For AGAGTTGC, the binding signal is -0.071 E-score.

For the sequence CAGCTTGC, the binding signal was -0.162 E-score.

As for GCCACCAC, the binding signal is -0.0814 E-score.

CAGTGACA showed a binding signal of 0.00145 E-score.

CCGATCCC registered a binding signal of -0.273 E-score.

In turn, ATTCTCGA came in with a binding signal of 0.21 E-score.

For ACTTGAAC, the binding signal is -0.123 E-score.

Sequence CCGCGAGG came in with a binding signal of -0.261 E-score.

The sequence AATATAGG displayed a binding signal of 0.0639 E-score.

For the sequence GCGCGCAA, the binding signal worked out at 0.0711 E-score.

ACTTCTTG registered a binding signal of 0.00785 E-score.

ATGCGTAA had a binding signal of 0.148 E-score.

TAATAGCA came in with a binding signal of 0.276 E-score.

With ACTTTGAA, the binding signal was -0.0356 E-score.

Regarding CTCGTGCA, the binding signal is -0.165 E-score.

On to TGTGCAAA, for which the binding signal was -0.144 E-score.

On to GATATGAC, for which the binding signal came to 0.0403 E-score.

CGTCTAGA displayed a binding signal of 0.0312 E-score.

Sequence CGTCATCC showed a binding signal of -0.0679 E-score.

Turning to AATTGTAG, the binding signal stood at 0.285 E-score.

Take CTCATCTC: the binding signal is -0.105 E-score.

As to AAGACGTA, the binding signal was -0.14 E-score.

Sequence GATAGATC yielded a binding signal of 0.268 E-score.

In the case of AGCTCCAG, the binding signal is -0.0943 E-score.

CATGTTCG gave a binding signal of -0.0041 E-score.

In turn, TATGTGGA came in with a binding signal of 0.282 E-score.

On to ATTGAGCA, for which the binding signal amounted to 0.0709 E-score.

CACGGTTA came in with a binding signal of 0.0638 E-score.

In turn, GATCGCAC returned a binding signal of -0.226 E-score.

GGACTTAA registered a binding signal of -0.17 E-score.

The sequence CTATGGAC gave a binding signal of -0.117 E-score.

Take CCACACGA: the binding signal is 0.0572 E-score.

Regarding GGATACCC, the binding signal was -0.0581 E-score.

Sequence CGGGATTA returned a binding signal of -0.0376 E-score.

CGGATAAC showed a binding signal of 0.0271 E-score.

For CTTCGCTC, the binding signal was -0.152 E-score.

Turning to CGGTTTAC, the binding signal was found to be 0.109 E-score.

The sequence AGGAGCAT came in with a binding signal of -0.132 E-score.

For the sequence GAGATCGC, the binding signal was -0.228 E-score.

AATGTACG registered a binding signal of 0.155 E-score.

Consider CCAGTAAA, for which the binding signal was 0.0523 E-score.

For the sequence TTAAATAA, the binding signal is 0.179 E-score.

GGGCAAAC came in with a binding signal of -0.0768 E-score.

CCGTTCGA yielded a binding signal of -0.15 E-score.

With ACTGAGCC, the binding signal is -0.241 E-score.

AGGATCGG returned a binding signal of -0.2 E-score.

Sequence ACAGTAAG displayed a binding signal of 0.153 E-score.

The sequence CGAGCACC returned a binding signal of -0.162 E-score.

CATATGGG showed a binding signal of 0.0424 E-score.

With CAGGTTCG, the binding signal is -0.31 E-score.

Sequence CGTACTTC returned a binding signal of 0.0309 E-score.

For CATGCGGA, the binding signal was -0.0164 E-score.

With ACTCCGTG, the binding signal was -0.145 E-score.

CCCCTCGG returned a binding signal of -0.417 E-score.

With CTTTAACC, the binding signal was -0.0453 E-score.

ATGGTTAG returned a binding signal of -0.0189 E-score.

Sequence AATGTAAT yielded a binding signal of 0.398 E-score.

ACAGGAGC: the binding signal is -0.0925 E-score.

For the sequence CCATATTC, the binding signal was -0.00545 E-score.

The sequence ACGAGTTA had a binding signal of 0.224 E-score.

CGCCTTAA returned a binding signal of -0.108 E-score.

On to TACTTCAA, for which the binding signal is 0.231 E-score.

CGGTTGGC registered a binding signal of -0.223 E-score.

Turning to CCATCAAG, the binding signal was -0.235 E-score.

Regarding CCCCAACG, the binding signal is -0.281 E-score.

AAGTGATG: the binding signal stood at 0.0895 E-score.

Sequence CTTCTCGA registered a binding signal of -0.166 E-score.

Regarding CAGACAAA, the binding signal was 0.00308 E-score.

AAGCAATC returned a binding signal of 0.0576 E-score.

ATCTGACG had a binding signal of -0.131 E-score.

As to AAAGTCTG, the binding signal was -0.0684 E-score.

As to ACGAGAAT, the binding signal stood at 0.05 E-score.

As to ACGTGCCT, the binding signal is -0.189 E-score.

CGATTCCC registered a binding signal of -0.114 E-score.

As to ATTATTTG, the binding signal came to 0.0555 E-score.

CCCCTAGG: the binding signal was -0.277 E-score.

The sequence TAGGGTGA registered a binding signal of -0.319 E-score.

Regarding CTGTAGCA, the binding signal came to 0.243 E-score.

In turn, GCCAAGAC gave a binding signal of -0.183 E-score.

Take CTGTGACA: the binding signal was -0.118 E-score.

As to ATGTATGA, the binding signal is -0.0125 E-score.

AATGTGGT registered a binding signal of 0.175 E-score.

Sequence GAGTAACA gave a binding signal of 0.0147 E-score.

In turn, GACAGACA displayed a binding signal of -0.102 E-score.

Sequence AGGTATAA gave a binding signal of 0.251 E-score.

Sequence GAATTGGC returned a binding signal of 0.0179 E-score.

The sequence TCCAGAGA yielded a binding signal of -0.119 E-score.

CGGAACCG: the binding signal was -0.064 E-score.

For ATAACCTA, the binding signal was determined as 0.18 E-score.

For the sequence CCATATAG, the binding signal came out at 0.129 E-score.

On to ATCTAAGG, for which the binding signal came out at 0.0861 E-score.

ATTAAAGC: the binding signal stood at 0.244 E-score.

For TCGTCGCA, the binding signal was -0.0233 E-score.

In turn, ACTGGTCT showed a binding signal of -0.0161 E-score.

Take AATCCTGG: the binding signal was -0.088 E-score.

Sequence AACACTTG yielded a binding signal of 0.11 E-score.

On to CCATGGAC, for which the binding signal is -0.136 E-score.

Take ACATGTAC: the binding signal was 0.331 E-score.

As for ACGGCAAT, the binding signal was found to be 0.0959 E-score.

ATGTTCTG returned a binding signal of -0.00292 E-score.

CGTGGCTC had a binding signal of -0.0916 E-score.

In turn, ATCTAAAT registered a binding signal of 0.0834 E-score.

GAAAGAAC displayed a binding signal of 0.0785 E-score.

For CTACGACC, the binding signal was -0.01 E-score.

GCCATTTA showed a binding signal of -0.19 E-score.

As to AAGTAAAG, the binding signal is 0.104 E-score.

Regarding ACACACCG, the binding signal stood at 0.109 E-score.

The sequence ACAACCCG gave a binding signal of -0.0914 E-score.

GTTAGCTA returned a binding signal of 0.292 E-score.

In the case of ATGTTTCC, the binding signal was found to be 0.0484 E-score.

AATTGAAA yielded a binding signal of 0.0679 E-score.

Sequence AGCAGCCG returned a binding signal of -0.142 E-score.

In the case of GACGCTAC, the binding signal stood at 0.107 E-score.

For CATGTTCA, the binding signal amounted to 0.0541 E-score.

AATTAGAC: the binding signal was found to be 0.0959 E-score.

Regarding GAAACTAA, the binding signal was 0.313 E-score.

In the case of ATGCGTAG, the binding signal is -0.101 E-score.

In the case of CACCCGAC, the binding signal is -0.282 E-score.

Regarding AACGTCGT, the binding signal is -0.00222 E-score.

Sequence AGCCAACC returned a binding signal of -0.074 E-score.

The sequence CTGGTGTC had a binding signal of -0.187 E-score.

GGCAAAAA returned a binding signal of -0.167 E-score.

Sequence TGTCTGAA came in with a binding signal of -0.259 E-score.

CTAGCACA gave a binding signal of 0.1 E-score.

For the sequence GGTGCGGA, the binding signal was -0.0626 E-score.

For the sequence CCTACTTC, the binding signal came out at 0.0914 E-score.

The sequence TAGCCGCA registered a binding signal of -0.0343 E-score.

CACTCCAA had a binding signal of -0.119 E-score.

Turning to ACTAGGGG, the binding signal is -0.0799 E-score.

With CGGCCGAA, the binding signal is -0.272 E-score.

CAATCTGG displayed a binding signal of 0.0188 E-score.

Regarding AGTGACTC, the binding signal was -0.0959 E-score.

In turn, TCACTAGA displayed a binding signal of 0.155 E-score.

ATTGCCCG registered a binding signal of -0.0517 E-score.

As for CGCCCGTA, the binding signal is -0.0928 E-score.

In turn, GCCACAGA registered a binding signal of -0.136 E-score.

In turn, GAATTGAA registered a binding signal of 0.154 E-score.

GCTGCGAC had a binding signal of -0.07 E-score.

With AAGTCAAT, the binding signal stood at 0.125 E-score.

Take CCCACTAG: the binding signal stood at 0.0169 E-score.

Sequence TGGAGTAA had a binding signal of 0.0157 E-score.

ACCATTAT: the binding signal was determined as 0.171 E-score.

CCCATGCA yielded a binding signal of -0.246 E-score.

On to AACTGCAT, for which the binding signal was -0.0824 E-score.

Regarding ACGCTTAT, the binding signal amounted to 0.134 E-score.

In turn, GAAAGTGC gave a binding signal of -0.0315 E-score.

In the case of GTACTTTA, the binding signal stood at 0.344 E-score.

GAACAGGA: the binding signal was -0.0727 E-score.

For ACGACGCA, the binding signal was 0.0773 E-score.

The sequence ACGCAATG showed a binding signal of -0.049 E-score.

Take ACTTCGCA: the binding signal was -0.00777 E-score.

On to AGTCATTC, for which the binding signal was determined as 0.0846 E-score.
